According to PubChem BioAssay AID488969 (Vanderbilt High Throughput Screening Facility, 2010):
Over roughly 110,000 compounds, “z-score” has its median near -0.1; the highest 2% begin near 2. This is one part of the list. Calls of active or inactive are those of the source.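 How the source made its calls: active means z-score in the third read window above 3 or below -3; inactive means the rest.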

Target: Metabotropic glutamate receptor 8 (Rattus norvegicus) (UniProt P70579)
Assay: mGluR8 Gi/Go-coupled signaling modulation – cell-based, rat, thallium flux, HTS, primary screen (AID 488969)
Settings: HEK293 rat mGluR8, GIRK (G protein-gated inwardly rectifying potassium channel) thallium flux, FluoZin2; at 10 µM; stronger effect = higher value; submaximal glutamate (EC20) added with thallium

Chain of UniProt P70579 (P70579 whole entry, looked up): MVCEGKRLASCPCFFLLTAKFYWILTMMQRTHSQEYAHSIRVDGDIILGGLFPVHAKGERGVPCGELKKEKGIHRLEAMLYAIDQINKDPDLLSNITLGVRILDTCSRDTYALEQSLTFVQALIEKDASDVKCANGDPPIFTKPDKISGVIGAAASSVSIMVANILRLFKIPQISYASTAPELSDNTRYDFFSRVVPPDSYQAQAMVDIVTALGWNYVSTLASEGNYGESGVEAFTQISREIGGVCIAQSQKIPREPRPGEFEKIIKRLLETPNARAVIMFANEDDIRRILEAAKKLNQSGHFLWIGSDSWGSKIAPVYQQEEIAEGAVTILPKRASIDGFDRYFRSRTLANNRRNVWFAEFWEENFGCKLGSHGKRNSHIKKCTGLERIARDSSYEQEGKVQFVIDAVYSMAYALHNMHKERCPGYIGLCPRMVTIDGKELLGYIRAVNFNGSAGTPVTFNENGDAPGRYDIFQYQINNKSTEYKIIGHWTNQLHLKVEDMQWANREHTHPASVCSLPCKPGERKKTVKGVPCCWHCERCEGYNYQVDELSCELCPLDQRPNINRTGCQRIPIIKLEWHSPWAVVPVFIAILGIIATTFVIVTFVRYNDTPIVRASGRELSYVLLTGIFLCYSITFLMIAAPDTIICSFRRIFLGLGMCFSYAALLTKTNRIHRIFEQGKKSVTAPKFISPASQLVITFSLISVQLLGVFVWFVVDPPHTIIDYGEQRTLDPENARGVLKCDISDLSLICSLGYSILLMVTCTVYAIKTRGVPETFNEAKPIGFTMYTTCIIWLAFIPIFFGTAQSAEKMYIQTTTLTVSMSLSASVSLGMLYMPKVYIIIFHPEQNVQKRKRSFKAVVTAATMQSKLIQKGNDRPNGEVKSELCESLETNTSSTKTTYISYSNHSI

Compound	z-score
CC(C)Cc1nc(NCCN2CCOCC2)c(C#N)c2c1COC(C)(C)C2	-0.172
Cc1c(C(=O)OCC(=O)N2c3ccccc3CC2C)oc2ccccc12 (stereo not given)	0.445
CNc1nc(Nc2ccc(C(C)=O)cc2)nc(OC(C(F)(F)F)C(F)(F)F)n1	-0.374
CCOC(=O)C1=C(C(F)(F)F)Nc2ncnn2C1c1cccc(OC)c1OC (stereo not given)	0.178
Cc1ccccc1OCCNc1ccc(C(F)(F)F)cc1[N+](=O)[O-]	-0.364
Cc1ccccc1C(=O)NC(C(=O)Nc1nc2c(s1)CCCC2)C(C)C (stereo not given)	-0.323
CCCn1nc(C(=O)OCC(=O)Nc2ncc(Cl)c(C)c2Cl)c2ccccc2c1=O	-1.02
COc1ccc(-c2nn(-c3ccccc3)cc2/C=N/NC(N)=S)cc1OC	-0.462
Cc1cccc(NC(=O)/C(=C\c2ccco2)NC(=O)c2ccccc2)c1	-0.314
Cc1nn2c(-c3cccc(NC(=O)c4ccco4)c3)nnc2c2ccccc12	-0.592
CC1(C)CC(=O)C(C(c2ccccc2F)C2C(=O)CC(C)(C)CC2=O)C(=O)C1	-0.0855
Cc1ccccc1C1C(C#N)=C2N=C(N)c3c(sc4c3CCCCC4)N2C2=C1C(=O)CCC2 (stereo not given)	-0.151
C=CCc1c(C)nc(-c2ccccc2)nc1N/N=C(\C)c1ccccc1	-0.217
Cc1noc(C)c1C(=O)NCc1ccco1	0.0639
CCN1C(=O)Cc2cc(S(=O)(=O)N3CCOCC3)ccc21	-0.176
O=C(NC(=S)N1CCc2ccccc21)c1ccccc1	active: 7.58
CCOc1ccc2nc(NC(=O)CN3CCC(n4nnc5cc(C(F)(F)F)ccc54)CC3)sc2c1	0.31
CCOCCCNC(=O)C(NC(=O)c1ccccn1)c1ccc(C)cc1 (stereo not given)	0.369
CCOc1cc(N2CCOCC2)c(OCC)cc1NC(=O)C1CCCC1	-0.0851
O=S(=O)(c1cccc(NC(=S)Nc2ccc(Br)cc2Cl)c1)N1CCOCC1	1.04
CC(O)CNc1nc2ccccc2n1CC(=O)NCCc1ccc(Cl)cc1 (stereo not given)	-0.271
CC(=O)Nc1ccc(C(=O)N2CCN(C(=O)c3ccco3)CC2)cc1	-0.147

Compound	z-score
CCC(C)(C)NC(=O)CN(C(=O)CCC(=O)Nc1ccccn1)c1ccc(F)c(Cl)c1	0.638
COc1ccc(-c2ccc(/C=N/NC(=O)c3cccnc3)o2)c([N+](=O)[O-])c1	0.101
O=[N+]([O-])c1ccc(N2CCN(c3ccccc3O)CC2)c(Cl)c1	-0.0782
CCN(CC)S(=O)(=O)c1ccc(NC(=O)C2CCCO2)cc1 (stereo not given)	-0.205
CC1=NN(c2ccc(N)cc2)C(=O)C1	0.0103
COc1ccc(CCN(C)C(=O)c2ccc(S(=O)(=O)NCc3ccco3)cc2)cc1OC	-0.228
Cc1ccc(NC(=S)c2nc3ccccc3s2)cc1	0.791
CC(=O)Nc1sc2c(c1C(c1ccc(F)cc1)N1CCOCC1)CCCC2 (stereo not given)	-0.267
Cc1c(NC(=O)c2cc(C3CC3)on2)c(=O)n(-c2ccccc2)n1C	0.0831
Cc1ccc(-n2c(SCc3nc4ccccc4c(=O)[nH]3)nnc2-c2ccccc2O)cc1	-0.814
O=C(NC12CC3CC(CC(C3)C1)C2)c1cnccn1	-0.0644
COc1cccc(OC)c1C(=O)Nc1cccc(C(C)=O)c1	-0.129
O=C(CN1CCCCC1)Nc1ccccc1NC(=O)CN1CCCCC1	0.172
CCN(CC)S(=O)(=O)c1ccc2oc(C(=O)N3CCc4ccccc4C3)c(C)c2c1	-0.125
CCCCn1c(C)cc(C)c(S(=O)(=O)c2ccccc2C)c1=O	-0.799
CSc1ccc(CNc2ccc(C)cc2)cc1	-0.0586
CCn1nnc2sc3c(c2c1=O)CCC(C)C3 (stereo not given)	-0.816
CCOC(=O)CSc1nc2c(sc(=S)n2Cc2ccco2)c(=O)n1-c1ccc(F)cc1	-0.18
Brc1cccc(OCCn2ccnc2)c1	-0.132
O=C1SCCc2c1n(Cc1ccccc1)c1ccccc21	-0.124
COCCNC(=O)CN1CCOc2ccccc21	-0.153
O=C(NCc1ccccn1)c1cc2n(n1)C(C(F)(F)F)CC(c1ccco1)N2 (stereo not given)	0.542

Compound	z-score
Cc1cc(C)n(C(=O)CNC(=O)C(c2ccccc2)c2ccccc2)n1	-0.473
Cc1ccc(NC(NC(=O)c2cccs2)C(Cl)(Cl)Cl)cc1C (stereo not given)	-0.404
Cc1ccc(Nc2nc(C)cc(C)n2)c(Br)c1	1.6
O=C(COc1ccc(S(=O)(=O)N2CCCCC2)cc1)N1CCCCCC1	-0.493
O=C(CCl)Nc1ccccc1Sc1ccccc1	-0.216
O=C(Nc1cccc(F)c1)NC1CCCCC1	0.258
CCON1C(=O)CN(C(=O)OC)C1c1ccc(Cl)cc1Cl (stereo not given)	-0.254
Cc1ccccc1Nc1nnc(SCC(=O)Nc2ncc(C(F)(F)F)cc2Cl)s1	-0.219
COc1ccccc1CC(=O)Nc1c[nH]c(=O)[nH]c1=O	0.0579
CCCCn1nc2cc(C(=O)NCc3ccco3)ccc2c1OCC	-0.226
CCCC(=O)NC(c1ccco1)c1c(O)ccc2ccccc12 (stereo not given)	-0.329
CCOC(=O)c1cnc(Nc2nc3ccccc3o2)nc1CN1CCN(c2ccccc2)CC1	0.234
Cc1cc(=O)oc(C)c1C(=O)OCC(=O)c1ccc(Cl)c(Cl)c1	0.0176
Clc1ccccc1-c1nc(N/N=C/c2cccnc2)c2ccccc2n1	-1.17
COc1ccc(OC(C)C(=O)Nc2cccnc2)cc1 (stereo not given)	1.27
CC12COC3(C(=O)Nc4nccs4)CC1CCC32C (stereo not given)	0.102
Cc1ccc(C)c(NS(=O)(=O)c2cc(C(=O)NCc3ccccn3)ccc2Cl)c1	-0.345
CCOC(=O)N1CCN(C(=O)c2ccc3c(=O)n(CCOC)c(=O)[nH]c3c2)CC1	-0.201
CCOCCCNCC(=O)Nc1ccc(OC(F)(F)F)cc1	0.312
O=C(c1cccs1)[C@@H]1[C@@H]2C(=O)N(Cc3ccc4c(c3)OCO4)C(=O)[C@@H]2C2c3ccccc3C=CN21 (stereo not given in full)	-0.104
O=C1CCCCC1S(=O)(=O)c1ccccc1 (stereo not given)	0.22
O=C(Nc1nsc(-c2ccccc2)n1)c1cccs1	-0.31

Compound	z-score
C[C@H](NC(=O)Nc1cccc(C(F)(F)F)c1)C(=O)O	0.557
NS(=O)(=O)c1ccc(NS(=O)(=O)c2cccs2)cc1	-0.115
Cn1ncc(Br)c1C(=O)OCC(=O)Nc1nc(-c2ccccc2)cs1	-0.654
O=C(CN1C(=O)c2ccccc2S1(=O)=O)NC1CC2CCC1C2 (stereo not given)	-1.05
COCC(C)NC(=O)NC(=O)c1ccc(Cl)cc1 (stereo not given)	-0.141
COc1ccc(NC(=O)Cc2coc3cc(C)c(C(C)C)cc23)cc1S(=O)(=O)N1CCOCC1	-0.503
CC(C)=CCc1c(C)nc2ccccc2c1C(=O)O	-0.313
CCCCN(CCCNC(=O)C1CCN(S(=O)(=O)N2CCOCC2)CC1)c1ccccc1	-1.17
Cc1ccc(Cn2c(=O)c3ccccc3n3c(CCC(=O)O)nnc23)cc1	1.86
CCSc1nc(-c2ccc(OC)cc2)ccc1C#N	-0.353
Cc1cccc(N2CCN(Cc3oc(CO)cc(=O)c3O)CC2)c1C	-0.0974
Cc1cc(C)nc(SC2CCCCC2NS(=O)(=O)c2ccccc2)n1 (stereo not given)	-0.037
Clc1ccc(OCCCn2cncn2)cc1Cl	-0.372
Cc1ccc(/C=C2\CCC3=C2OC(N)=C(C#N)C3c2ccc(C)cc2)cc1 (stereo not given)	0.44
COc1ccc(C2=NOC(C(=O)Nc3cc(C)nn3-c3ccccc3)C2)cc1OC (stereo not given)	-0.0749
CCOC(=O)c1ccc(NC(=O)Cn2nnc(-c3ccc(C)cc3)n2)cc1	-1.18
Cc1cc(C)cc(-n2c(=O)c3sccc3n(CC(=O)NCc3ccco3)c2=O)c1	-0.198
CCOc1ccc(NC(=O)CC2C(=O)N(c3ccccc3)C(=O)N2Cc2ccccn2)cc1 (stereo not given)	0.114
CCOc1nc(C)ccc1-c1noc(-c2ccco2)n1	0.24
CCOC(=O)COC(=O)c1ccc(Oc2cc(C)nc(SC)n2)cc1	-0.774
CCCc1[nH]nc2c1C(c1ccc(OCCN3CCOCC3)c(OCC)c1)C(C#N)=C(N)O2 (stereo not given)	-0.892
Cc1ccc(-c2noc(CCC(=O)Nc3cccc(C#N)c3)n2)cc1	0.556

Compound	z-score
CS(=O)(=O)N(CC(=O)NC1CCCCC1)c1cccc(Cl)c1	1.03
COc1ccccc1NC(=O)Cc1noc(CSc2nnc(N)s2)n1	-0.249
CCn1c(SCC(=O)Nc2cc(NC(C)=O)ccc2OC)nnc1-c1cccnc1	-0.0584
COc1ccc(NC(=O)C2(c3ccc(NC(=O)c4ccc(OC(C)=O)cc4)cc3)CCCC2)cc1	-0.0269
O=[N+]([O-])c1cc(Cl)cc(C2=NCCN2)c1	0.173
CCCCCN(C(=O)NC(=O)Nc1ccccc1OC)S(C)(=O)=O	1.25
COc1ccc(NC(=O)CCC(=O)OCC(=O)c2ccc(Oc3ccc([N+](=O)[O-])cc3)cc2)cc1	-0.475
O=C1NCCN1C(=O)c1ccccc1F	0.555
COc1ccc(/C(C)=N/Nc2cc(C(F)(F)F)ccc2Cl)c(OC)c1	-0.148
Cc1nc2ccccn2c1/C(O)=C1\C(=O)C(=O)N(CCCn2ccnc2)C1c1ccncc1 (stereo not given)	0.355
Cc1ccc(NC(=O)/C(=C\c2ccc([N+](=O)[O-])cc2)NC(=O)c2ccccc2)cc1	-0.085
CCC(Oc1ccccc1)C(=O)Nc1ccc(-c2nnc(-c3ccco3)o2)cc1 (stereo not given)	-1.36
COc1ccc(CNC(=O)COC(=O)c2cc(-c3ccc(Cl)s3)nc3ccccc23)cc1	-0.432
CCOCc1cn(CC(=O)c2ccc(Cl)cc2)c(C)nc1=N	-0.0215
CCn1c(SCC(=O)NCc2ccc(C)cc2)nnc1-c1ccncc1	-0.152
COc1ccc(C(=O)NC(=S)N2CCC(C)CC2)cc1	active: 14.2
CCN(CC(=O)NC(C)C)C(=O)c1ccc(S(=O)(=O)N(C)c2ccccc2OC)cc1	0.236
COc1ccccc1OCC(=O)N/N=C/C=C/c1ccc([N+](=O)[O-])o1	-0.316
FC(F)Sc1ccc(NC(=S)NC2CCCCC2)cc1	-0.326
COc1ccc(C(=O)Nc2ccc(F)cc2F)cc1OC	-0.179
O=C1c2ccccc2-c2nc3ncnn3c(-c3ccccc3)c21	0.11
CCn1c(Cc2ccccc2)nnc1SCC(=O)Nc1ccc(N)cc1	-0.314
